{"source": "PubChem BioAssay AID1347417", "about": "(National Center for Advancing Translational Sciences (NCATS), 2020)", "note": "The campaign covered roughly 120,000 compounds. About 5,300 (4.4%) were called active. The inconclusive results got no clear call from the source; some entries with a clear call stand among them for comparison. Calls come from the whole dose curve; as a rule, active = well fitted inhibition curve with a large enough effect; inconclusive = small, poorly fitted or top-dose-only effect; inactive = no such curve, though single readings can be large or run the other way. A potency beside an inconclusive call is a rough fit, not a confirmed value. Potency is the fitted concentration of half-maximal effect; tags give direction and shape of the fitted curve."}
{"test": "qHTS Primary assay for Inhibitors of Plasmodium falciparum Dd2 growth in vitro; note: nearly all actives have a fitted effect of over 65% in size;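 for activity, negative = inhibition: plate controls were DMSO vehicle for no effect and reference drug for full effect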", "conditions": "P. falciparum Dd2 growth, SYBR Green, 72 h; activity, negative = inhibition: at 28.9 µM (top of the series) unless noted; series mostly up to 28.9 µM", "summary_of_the_method": "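Readout: SYBR Green fluorescence, 485 nm excitation, 535 nm emission, after ~16 h lysis at 37C. Before that, Dd2-infected red cells (2.5% hematocrit) grew 72 h with compound, 29 uM top final concentration.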"}
{"smiles": "COC(=O)c1c(-c2cccs2)csc1NC(=O)c1ccc(C(C)C)cc1", "Potency": "inconclusive: 17.8 µM [inhibitor, single point]"}
{"smiles": "COc1ccc(-c2ccc3c(c2)C(=O)N2CC[C@H](NS(=O)(=O)c4cccs4)[C@H]2C(=O)N3)cc1", "Potency": "active: 11.2 µM"}
{"smiles": "COc1cccc(N2C(=O)NC(=NC3CCCCC3)C23CCCN([S+](=O)([O-])c2cccs2)C3)c1", "note": "(stereo unspecified)", "Potency": "inconclusive: 17.8 µM [inhibitor, single point]"}
{"smiles": "COc1cc(NC(=O)c2ccc(Cn3ccn4nc5c(c4c3=O)CCCC5)cc2)cc(OC)c1OC", "Potency": "inconclusive: 11.2 µM [inhibitor, single point]"}
{"smiles": "O=C(NCc1ccc2c(c1)CCN2C(=O)c1ccncc1)c1ccccc1F", "outcome": "inactive"}
{"smiles": "CCN(CC)c1cc(CCC(=O)NCCN(C)C2CCCCC2)ccn1", "Potency": "active: 1.58 µM"}
{"smiles": "COc1ccc(-c2nc(C)nc3c2CCN(Cc2cccc4ccccc24)CC3)cc1", "Potency": "inconclusive: 4.47 µM [inhibitor, partial curve]"}
{"smiles": "Cc1ccccc1NC(=O)c1ccc(N(Cc2ccccc2)S(C)(=O)=O)cc1", "Potency": "inconclusive: 10 µM [inhibitor, single point]"}
{"smiles": "CC(C)C[C@@H]1N[C@H](C(=O)NCc2ccccc2)Cc2cn(Cc3ccncc3)c3cccc1c23", "Potency": "inconclusive: 12.6 µM [inhibitor, single point]"}
{"smiles": "CC(C)(C)OC(=O)N1CCC(c2c(C(=O)Nc3ccc4c(c3)OCO4)cnn2-c2ccccc2)CC1", "Potency": "active: 5.01 µM"}
{"smiles": "CC(NC(=O)c1cc2c(s1)CCN(C(=O)c1ccccc1)C2)c1ccc(F)cc1", "note": "(stereo unspecified)", "activity, negative = inhibition": "inactive: -1.52%"}
{"smiles": "O=C(C1CCOCC1)N1CCC(Oc2cccc(F)c2)C1", "note": "(stereo unspecified)", "outcome": "inactive"}
{"smiles": "O=C(COc1ccccc1)Nc1ccc([C@@H](O)[C@H]2COCC(=O)N2Cc2ccc(C(F)(F)F)cc2)cc1", "Potency": "inconclusive: 3.98 µM [inhibitor, full curve, poor fit]"}
{"smiles": "COC(=O)[C@H](CC1CCCCC1)NC(=O)[C@@H]1CN(C(=O)c2ccc(N(C)C)cc2)CCN1C(C)=O", "Potency": "inconclusive: 20 µM [inhibitor, single point]"}
{"smiles": "CN(C)CC(=O)Nc1ccc2n(c1=O)C[C@H]1C[C@@H]2CN(C(=O)c2ccc(F)cc2)C1", "outcome": "inactive [at 44.1 µM]"}
{"smiles": "CCN1c2cc(C(=O)NCc3ccccc3Cl)ccc2C(=O)N2CCCCCC21", "note": "(stereo unspecified)", "Potency": "inconclusive: 3.16 µM [inhibitor, single point]"}
{"smiles": "CCCN1C(=O)Cc2ccccc2C1C(=O)NCc1ccc(F)c(Cl)c1", "note": "(stereo unspecified)", "Potency": "inconclusive: 17.8 µM [inhibitor, single point]"}
{"smiles": "CN1C[C@@H](NC(=O)c2ccc(F)cc2)C[C@H]1c1nc(-c2ccc3c(c2)OCO3)no1", "Potency": "inconclusive: 31.6 µM [inhibitor, single point]"}
{"smiles": "Cc1cccc(C(=O)N2CC(=O)N(c3cccc(Cl)c3)CC2C)n1", "note": "(stereo unspecified)", "activity, negative = inhibition": "inactive: 4.11%"}
{"smiles": "O[C@@H]1C[C@@H](c2nc(-c3ccc4c(c3)OCO4)no2)N(CC2CC2)C1", "outcome": "inactive [at 44.1 µM]"}
{"smiles": "COCC(=O)N1CCN2C(=O)c3cc(-c4ccc5c(c4)OCO5)ccc3NC(=O)[C@H]2C1", "outcome": "inactive [at 44.1 µM]"}
{"smiles": "CC(C)CN1C(=O)C(CC(=O)N2CCOCC2)Sc2ncccc21", "note": "(stereo unspecified)", "activity, negative = inhibition": "inactive: 4.52%"}
{"smiles": "CCc1ccc(C(=O)N2CCC(Cc3nc(-c4ccc(OC)cc4)no3)CC2)cc1", "Potency": "inconclusive: 5.01 µM [inhibitor, partial curve, poor fit]"}
{"smiles": "Cc1ccc(C2(O)CCN(C(=O)c3ccccc3-c3nn[nH]n3)CC2)nc1", "activity, negative = inhibition": "inactive: -10.1%"}
{"smiles": "Cc1nnc(N2CCN(C(=O)Nc3cc(F)ccc3F)CC2)c2nn(-c3ccc(Cl)cc3)c(C)c12", "Potency": "inconclusive: 11.2 µM [inhibitor, single point]"}
{"smiles": "Cc1ccc(Nc2ccc(N3CCN(C(=O)c4ccc([N+](=O)[O-])cc4Cl)CC3)nn2)cc1", "Potency": "inconclusive: 17.8 µM [inhibitor, single point]"}
{"smiles": "CCOc1ccccc1N(CC)C(=O)c1ccc2c(=O)n3c(nc2c1)CCCCC3", "Potency": "inconclusive: 5.62 µM [inhibitor, partial curve, poor fit]"}
{"smiles": "Cc1ccccc1S(=O)(=O)N1CCC2(CC1)CC(CC(=O)N1CCCC1)CCO2", "note": "(stereo unspecified)", "Potency": "inconclusive: 17.8 µM [inhibitor, single point]"}
{"smiles": "Cn1ccc(NCc2nc3c(n2Cc2ccccc2)C(=O)N(Cc2cccc(Cl)c2)CCN3)n1", "Potency": "inconclusive: 2 µM [inhibitor, partial curve, poor fit]"}
{"smiles": "O=C(NC[C@H]1OC[C@@H](NC2CCCC2)[C@@H]1O)c1ccccc1", "outcome": "inactive [at 44.1 µM]"}
{"smiles": "CC(C)NC(=O)CCSc1nc(-c2ccc3c(c2)OCO3)cc(C(F)(F)F)n1", "Potency": "inconclusive: 17.8 µM [inhibitor, single point]"}
{"smiles": "O=C(C1CCN(c2cnn(CC3CC3)c(=O)c2)C1)N1CCc2ccccc2C1", "note": "(stereo unspecified)", "Potency": "inconclusive: 15.8 µM [inhibitor, single point]"}
{"smiles": "CN(C)Cc1cc(C[C@@H]2C[C@H](NCc3ccccc3O)C2(C)C)no1", "Potency": "inconclusive: 1.58 µM [inhibitor, full curve, poor fit]"}
{"smiles": "COC1CN(c2cccc(F)c2)C12CCN(S(=O)(=O)Cc1ccccc1F)CC2", "note": "(stereo unspecified)", "Potency": "inconclusive: 8.91 µM [inhibitor, partial curve]"}
{"smiles": "COCCN1CCOc2nc(-c3ccc(Oc4ccccc4)cc3)ncc2C1=O", "Potency": "inconclusive: 1.58 µM [inhibitor, partial curve, poor fit]"}
{"smiles": "O=C(c1cccnc1)N1CCC2(CC1)NCCc1c2[nH]c2ccccc12", "activity, negative = inhibition": "inactive: -13.1%"}
{"smiles": "COc1cc2c(cc1OCC1CCCC1)N([S+](=O)([O-])c1cccc(C(F)(F)F)c1)CC21CCN(CC(=O)O)CC1", "Potency": "inconclusive: 17.8 µM [inhibitor, single point]"}
{"smiles": "CCn1cc(CN2CCN(C(=O)COc3ccccc3)CC2)ccc1=O", "activity, negative = inhibition": "inactive: 9.65%"}
{"smiles": "Cc1cnc(CC2CCN(C(=O)C3CCCC3)C2)n1C1CC1", "note": "(stereo unspecified)", "Potency": "inconclusive: 10 µM [inhibitor, single point]"}
{"smiles": "Cc1cn2nc(C(=O)NC3CCc4ccccc43)cc2c(N2CCCC2)n1", "note": "(stereo unspecified)", "Potency": "active: 5.62 µM"}
{"smiles": "COc1ccc(C2(C(=O)N3CCN(Cc4ccccc4)CC3)CCOCC2)cc1", "Potency": "inconclusive: 7.94 µM [inhibitor, single point]"}
